The source of these data is article PMC9911399.

The list shows a part of the results.

For this assay, the target named is T1, RBFOX1 RRM (Homo sapiens) (UniProt Q9NWB1).
T1 sequence: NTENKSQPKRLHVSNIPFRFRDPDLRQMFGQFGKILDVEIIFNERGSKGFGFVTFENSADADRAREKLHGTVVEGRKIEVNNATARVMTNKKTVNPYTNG
The assay can be described thus: EMSA. The following applies: HiTS-Eq, 1 nM pool, 10 min; buffer printed only for the single-RNA assays: 10 mM Tris pH 7.5, 150 mM NaCl, 3.4 mM EDTA, 0.001% NP-40, 30 C.
In the case of “GGGAGACCGGAAUUCAGAUUGUCCUACUCCCUUAAAUCCCGUCGUAGCCACCA / CAATCTGAATTCCGGTCTCCC / TGGTGGCTACGACGGGATT”, the binding signal (KA relative to UGCAUGU) turned out to be 0.00122.
To “GGGAGACCGGAAUUCAGAUUGUCCCCACCUAUUAAAUCCCGUCGUAGCCACCA / CAATCTGAATTCCGGTCTCCC / TGGTGGCTACGACGGGATT” belongs 0.00326; to “GGGAGACCGGAAUUCAGAUUGUCCGGUCAACUUAAAUCCCGUCGUAGCCACCA / CAATCTGAATTCCGGTCTCCC / TGGTGGCTACGACGGGATT”, 0.00281; to “GGGAGACCGGAAUUCAGAUUGUCCUCCCACAUUAAAUCCCGUCGUAGCCACCA / CAATCTGAATTCCGGTCTCCC / TGGTGGCTACGACGGGATT”, 0.0187.
To “GGGAGACCGGAAUUCAGAUUGUCCCCCCCACUUAAAUCCCGUCGUAGCCACCA / CAATCTGAATTCCGGTCTCCC / TGGTGGCTACGACGGGATT” belongs 0.0114.
